{"source": "PubChem BioAssay (NCATS)", "note": "Inconclusive means that the source gave no clear call. Such entries were picked first, then a sample of the others. Potencies of inconclusive entries are doubtful fits and often do not repeat. The source made the active and inactive calls. Calls follow the shape of the dose curve; as a rule, active = well fitted inhibition curve with a large enough effect; inconclusive = small, poorly fitted or top-dose-only effect; inactive = no such curve, though single readings can be large or run the other way. Potency is read from the fitted curve at half-maximal effect; tags tell the direction and shape of the fitted curve."}
{"target": "Retinaldehyde dehydrogenase 3 (Homo sapiens) (UniProt P47895)", "experiment": "qHTS for Inhibitors of the Aldehyde Dehydrogenase Family (ALDH1A3) Primary screen (AID 2061315);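 as to activity change, negative = inhibition: plate controls were DMSO vehicle for no effect and reference inhibitor for full effect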", "details": "ALDH inhibition qHTS; activity change, negative = inhibition: at 56 µM (top of the series) unless noted"}
{"smiles": "C/C=C/C=C/C=C/C(=O)OC1C=C2C(O)OC(=O)[C@]2(O)[C@@]2(C)CCCC(C)(C)[C@H]12", "note": "(stereo not given in full)", "activity change, negative = inhibition": "inactive: 2.5% [at 28 µM]"}
{"smiles": "C=C1CCC2C(C)(CO[C@@H]3O[C@H](CO)[C@@H](O)[C@H](O)[C@H]3O)C(O)CCC2(C)C1C(=O)CC1=CCOC1=O", "note": "(stereo not given in full)", "Potency": "inconclusive: 12.6 µM [inhibitor, partial curve, poor fit]"}
{"smiles": "CC(=O)c1c(OCCN2CCCCC2)c(OCCC(C)c2ccc(F)cc2)c2oc(C)nc2c1C", "note": "(stereo not given)", "activity change, negative = inhibition": "inactive: -2.63%"}
{"smiles": "CCOc1ccc(-n2c(C(C)N(Cc3cccnc3)C(=O)Cc3ccc(F)c(C(F)(F)F)c3)nc3ncccc3c2=O)cc1", "note": "(stereo not given)", "activity change, negative = inhibition": "inactive: 14.4%"}
{"smiles": "CC(=O)O[C@H]1C[C@H](OC(C)=O)[C@]2(C)[C@H](CC[C@@]34O[C@@H]3C3=C(C)C(=O)O[C@@H]3C[C@H]42)C1(C)C", "activity change, negative = inhibition": "inactive: -11.6% [at 28 µM]"}
{"system": "not listed separately", "experiment": "BET inhibitor-based combinations targeting novel dependencies in MECOM-rearranged (r) AML: SET-2 cell line (AID 2202231); also: nearly all actives have a fitted effect of over 35% in size;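 as to viability: plate controls were DMSO treated cells for no effect and wells without cells for full effect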", "details": "SET-2 AML cells viability, CellTiter-Glo luminescence, 48 h; viability: stronger effect = lower value, concentration not given here", "procedure,_shortened": "(§1)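 Readout: CellTiter-Glo luminescence. Exposure: 48 h, 11 concentrations, 500 cells/well. Metric: AUC and within-line Z-AUC after DMSO/empty-well normalization.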"}
{"smiles": "CCc1c2c(nc3ccc(O)cc13)-c1cc3c(c(=O)n1C2)COC(=O)[C@]3(O)CC", "Potency": "active: 0.0166 µM"}
{"smiles": "COc1ccc2c(Oc3ccc(NC(=O)c4c(C)n(CC(C)(C)O)n(-c5ccccc5)c4=O)cc3F)ccnc2c1", "Potency": "inconclusive: 26.3 µM [inhibitor, single point]"}
{"smiles": "Cc1cc(C)c(CNC(=O)c2cc(-c3ccc(CN4CCOCC4)cc3)cc3c2cnn3C2CCCC2)c(=O)[nH]1", "Potency": "inconclusive: 37.2 µM [inhibitor, single point]"}
{"smiles": "CC(C)COCC(CN(Cc1ccccc1)c1ccccc1)N1CCCC1", "note": "(stereo not given)", "Potency": "active: 23.5 µM"}
{"smiles": "O=c1cc(N2CCOCC2)oc2c(-c3ccccc3)cccc12", "Potency": "inconclusive: 20.9 µM [inhibitor, single point]"}
{"smiles": "Cc1c(OCC(F)(F)F)ccnc1CS(=O)c1nc2ccccc2[nH]1", "note": "(stereo not given)", "Potency": "inconclusive: 33.2 µM [inhibitor, partial curve, poor fit]"}
{"smiles": "CC(C)c1noc(N2CCC(COc3ccc(-c4ccc(S(C)(=O)=O)cc4)nc3)CC2)n1", "Potency": "active: 11.8 µM"}
{"smiles": "Cc1nc(Nc2ncc(C(=O)Nc3c(C)cccc3Cl)s2)cc(N2CCN(CCO)CC2)n1", "Potency": "inconclusive: 18.6 µM [inhibitor, partial curve]"}
{"smiles": "CC(C)Cc1ccc(C(C)C(=O)O)cc1", "note": "(stereo not given)", "viability": "inactive: 111%"}
{"smiles": "Oc1ccc(/C=C/c2cc(O)cc(O)c2)cc1", "Potency": "inconclusive: 20.9 µM [inhibitor, partial curve]"}
{"system": "not listed separately", "experiment": "BET inhibitor-based combinations targeting novel dependencies in MECOM-rearranged (r) AML: OCI-AML3 cell line (AID 2202232); also: nearly all actives have a fitted effect of over 35% in size;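 as to viability (% of control): plate controls were DMSO vehicle wells for no effect and wells without cells for full effect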", "details": "CellTiter-Glo luminescence, 48 h; Potency: OCI-AML3 viability; viability (% of control): at 46 µM (top of the series)", "procedure,_shortened": "as §1"}
{"smiles": "CS(=O)(=O)c1ccc(C2=C(c3ccccc3)C(=O)OC2)cc1", "viability (% of control)": "inactive: 99.2%"}
{"smiles": "c1cc(-c2cnn3cc(-c4ccc(N5CCNCC5)cc4)cnc23)c2cccnc2c1", "Potency": "active: 16.6 µM"}
{"smiles": "Cc1cc(C)c(CNC(=O)c2cc(-c3ccc(CN4CCOCC4)cc3)cc3c2cnn3C2CCCC2)c(=O)[nH]1", "Potency": "inconclusive: 20.9 µM [inhibitor, partial curve]"}
{"smiles": "Cc1oncc1C(=O)Nc1ccc(C(F)(F)F)cc1", "Potency": "inconclusive: 7.42 µM [inhibitor, partial curve, poor fit]"}
{"smiles": "Cc1c(OCC(F)(F)F)ccnc1CS(=O)c1nc2ccccc2[nH]1", "note": "(stereo not given)", "Potency": "inconclusive: 1.48 µM [inhibitor, full curve, poor fit]"}
{"smiles": "O=C(CC12CC3CC(CC(C3)C1)C2)Nc1cccc2nc(NCCNCCO)ccc12", "Potency": "inconclusive: 29.5 µM [inhibitor, single point]"}
{"smiles": "Cc1nc(Nc2ncc(C(=O)Nc3c(C)cccc3Cl)s2)cc(N2CCN(CCO)CC2)n1", "Potency": "active: 13.2 µM"}
{"smiles": "CNc1nc(C)nc(N[C@H]2CCC[C@@H](C(=O)NCc3ccc(C#N)cc3C(F)(F)F)C2)n1", "viability (% of control)": "inactive: 107%"}
{"smiles": "NC(=O)c1cccc(N)c1", "viability (% of control)": "inactive: 108%"}
{"smiles": "C=C1C[C@@]2(O)O[C@@]3(C[C@H]2C(C)C)[C@@H](C)CC[C@@H]13", "viability (% of control)": "inactive: 97.7%"}
{"smiles": "COc1ccc2c(c1)CC[C@@H](CN(C)CC(=O)O)[C@H]2c1ccccc1", "Potency": "inconclusive: 7.62 µM [inhibitor, partial curve, poor fit]"}
{"system": "not listed separately", "experiment": "BET inhibitor-based combinations targeting novel dependencies in MECOM-rearranged (r) AML: MV-4-11 cell line (AID 2202233); also: nearly all actives have a fitted effect of over 45% in size;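 as to viability, % of control: plate controls were DMSO for no effect and blank wells for full effect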", "details": "MV-4-11 AML viability, CellTiter-Glo luminescence, 48 h; viability, % of control: at 46 µM (top of the series) unless noted", "procedure,_shortened": "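Seeding density was 500 cells/well, and drug exposure lasted 48 hr under standard culture conditions. Read-out used CellTiter-Glo reagent with a 15 min room-temperature incubation before luminescence measurement; AUC and Z-AUC summarize the normalized responses.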"}
{"smiles": "CCCn1c(=O)c2[nH]c(-c3cnn(Cc4cccc(C(F)(F)F)c4)c3)nc2n(CC)c1=O", "viability, % of control": "inactive: 115%"}
{"smiles": "Cc1oncc1C(=O)Nc1ccc(C(F)(F)F)cc1", "Potency": "inconclusive: 14.8 µM [inhibitor, partial curve]"}
{"smiles": "Cc1c(OCC(F)(F)F)ccnc1CS(=O)c1nc2ccccc2[nH]1", "note": "(stereo not given)", "Potency": "inconclusive: 20.9 µM [inhibitor, single point]"}
{"smiles": "O=C(CC12CC3CC(CC(C3)C1)C2)Nc1cccc2nc(NCCNCCO)ccc12", "Potency": "inconclusive: 26.3 µM [inhibitor, single point]"}
{"smiles": "NC(=O)c1cccc(N)c1", "viability, % of control": "inactive: 114%"}
{"smiles": "CC(C)Cc1ccc(C(C)C(=O)O)cc1", "note": "(stereo not given)", "viability, % of control": "inactive: 129%"}
{"smiles": "CN(C)C1CCN(C(=O)c2ccc(NC(=O)Nc3ccc(-c4nc(N5CCOCC5)nc(N5CCOCC5)n4)cc3)cc2)CC1", "Potency": "active: 0.118 µM"}
{"smiles": "Oc1ccc(/C=C/c2cc(O)cc(O)c2)cc1", "Potency": "active: 16.6 µM"}
{"smiles": "COc1ccc2c(c1)CC[C@@H](CN(C)CC(=O)O)[C@H]2c1ccccc1", "Potency": "inconclusive: 42.8 µM [inhibitor, partial curve, poor fit]"}
